This is an account of results in the RNAGym collection of RNA variant scans (doi:10.7554/elife.90254).

Read counts are not given, so values of variants with three or more changes are uncertain.

The chains are these.
B1: LINE1-mini (parent)
chain: GGCAGAGCUCAACACAGCGUGGCAAAGUGGCUGUGGCUAGACUGCC

Variants of B1 are the subject of this data set. In words: self-cleavage, relative activity (ratio to wild type); higher = more cleavage; in vitro, sequencing; the parent is a self-cleaving ribozyme.
For the variant GUCAGAGCUGAACACAGCGUGGCAGAGUGGCUGUGGCAAGAAUGCC [G2U C10G A25G U38A C42A], the self-cleavage turned out to be 0.01.
Under GUCAGAGCUCAAAUCAGCGUGGCAAAGUGGCUGUGGCCAGACUGCC [G2U C13A A14U U38C] stands 0.03.
To GUCAGAGCUUAACACAGCGUGGCAAAGUGGCUGUGGCUAGAUUGCC [G2U C10U C42U] belongs 0.03; to GUCAGAGCUCAAUACAGCGUGGCAACGUGGCCGCGGCUAGACUGCC [G2U C13U A26C U32C U34C], 0.06; to GUCAGAGCUCAAAACGGCGUGGCAAAGUGGAUGUGGCUAGACUGCC [G2U C13A A16G C31A], 0.01.
Under GUCAGAGCUUAACACAGCAUGGCAAAGUGGCUGUGGCUAGACUGCC [G2U C10U G19A] stands 0.01; under GUCAGAGCUAAACACAGCGUGGCAAAGUGGCUGUGGCUUGACUUCC [G2U C10A A39U G44U], 0.01; under GUCAGAGCUAAACACAGCGGGACAAAGUGGCAGUGGCUAGACUGCC [G2U C10A U20G G22A U32A], 0.01.
In the case of GUCAGAGUUCAACACAGCGUGGCAAAGUGGCUGCGGCUAGGCUGCC [G2U C8U U34C A41G], the self-cleavage turned out to be 0.14.
To GUCAGAGCUGAACACAGCAUGGCGAGGUGGCUGUGGCUAGACUGCC [G2U C10G G19A A24G A26G] belongs 0.
Under GUCAGAGCUUAUCACAGCGUGGAAAAGUGGCUGUGGCUAGACUGCC [G2U C10U A12U C23A] stands 0.02; under GUCAGAGCUCAAGGCAGCGUGGCAAAGUGGCUGUGGCUAGACUGCC [G2U C13G A14G], 0.01; under GUCAGAGCUCAAAACAGCGUAGCAAAGUGGCUGUGGCGAGACUGCC [G2U C13A G21A U38G], 0.01.
To GUCAGAGCUACACUCAGCGUGGCAAAGUGGCUGUGGCUAGUCUGCC [G2U C10A A11C A14U A41U] belongs 0.01; to GUCAGAGCUUAACACAGGGUCGGAAAGUGGCUGUGGCGAGAGUGCU [G2U C10U C18G G21C C23G U38G C42G C46U], 0.01.
On to GUCAGAGCUCAAGAAAGUGUGGCAAAGUGGCUGUGGCUAGACUGCC [G2U C13G C15A C18U], for which the self-cleavage came out at 0.02.
To GUCAGAGCUAAAUACAGCGUGGCAAAGUGGCUGUGGCUAGACUGCC [G2U C10A C13U] belongs 0.02; to GUCAGAGCUCAAUACAGCGUGGCCAAGUGUCUGUGGCUAGACUGCC [G2U C13U A24C G30U], 0.05; to GUCAGAGCUGAACACAGCGUGGGACAGUGGCUGUGGCUAGACUGCC [G2U C10G C23G A25C], 0.02.
Under GUCAGAGCUUAACACAACGUGGCAAAGUGGCUGUGGCUAUACUGCG [G2U C10U G17A G40U C46G] stands 0.02; under GUCAGAGCUCAAGACAGCGUGGCAAAGUGGCUGUGGCUAGAAAGCC [G2U C13G C42A U43A], 0.01.
Under GUCAGAGCUUGACACAGCGUCGCAAAGUGGCUGUGGCUAGAUUGCC [G2U C10U A11G G21C C42U] stands 0; under GUCAGAGCUAAACACAGCGUGGCAAAAUGGUUGUGGCUAGACUGCC [G2U C10A G27A C31U], 0.01; under GUCAGAGCUGAACAGAUCGUGGCAAAGUGGCUGUGGCGAGACUGCC [G2U C10G C15G G17U U38G], 0.02.
GUCAGAGCUGAACACACGGUGGCAAAGUGGCUGUGGCUACACUGCC [G2U C10G G17C C18G G40C]: the self-cleavage is 0.01.
As to GUCAGAGCUAAACACGGCGUGCCAAAGUGGCUGUGGCUAGACUGCC [G2U C10A A16G G22C], the self-cleavage was 0.01.
To GUCAGAGCUCAAAACAUCGUGGCAAAGUGGCUGUGGCUAGACUGCC [G2U C13A G17U] belongs 0.
To GUCAGAGCUAAACACAGCGUGCCAAAGUGGCUGUGGCUAGACUGCU [G2U C10A G22C C46U] belongs 0; to GUCAGAGCUCAAAACAGCGUGGCAAAGUGGCUGUGUUUAGACUGCC [G2U C13A G36U C37U], 0.03; to GUCAGAGCUCAAAACAGUGUGGCAACGUUGCUGAGGCUAGACUGCC [G2U C13A C18U A26C G29U U34A], 0.02.
Under GUCAGAGCUAAUGACAGCGUGGCAAAGUGGCUGUGGCUAGACUGCC [G2U C10A A12U C13G] stands 0.02; under GUCAGAGCUUAACACAGCGUAGCAGAGUAGCUGUGGCAACACUGCC [G2U C10U G21A A25G G29A U38A G40C], 0.01.
Turning to GUCAGAGCUCAAGGCAGCGUGGCAAAGUGGCUGAGGCUAGACUGCC [G2U C13G A14G U34A], the self-cleavage was 0.
Under GUCAGAGCUAAACACAGCGUGGGAAAAUGGCUGUGGCUAGUCUGCC [G2U C10A C23G G27A A41U] stands 0.03.
With GUCAGAGCUCAAGACAGGGUGGCAAAGUGGCUGUGGCAAGACUGCC [G2U C13G C18G U38A], the self-cleavage is 0.02.
To GUCAGAGCUCAAAACAGCGUGGCAAAGUGGCUGUGGCGAGAUUGCC [G2U C13A U38G C42U] belongs 0.01.
Take GUCAGAGCUAUACACCGCGUGGCAAAUUGGCUGUGGCUAGACUGCC [G2U C10A A11U A16C G27U]: the self-cleavage amounted to 0.
Under GUCAGAGCUCAAAACAGCGUGGCAAAGUGGCUGAGGCUAGCCCGAC [G2U C13A U34A A41C U43C C45A] stands 0.01; under GUCAGAGCUCAAUACCACGUGGCAAAGUGGCUGUGGCUAGACUGCC [G2U C13U A16C G17A], 0.01; under GUCAGAGCUCAAAACAGCGUGGCAAAGUGGCUGUGGCUAGUCUGCC [G2U C13A A41U], 0.09.
To GUCAGAGCUAUACACAGCGUGGCAAAGUGGCAGUGGCUAGACUGCC [G2U C10A A11U U32A] belongs 0; to GUCAGAGCUGAACACAGCUUGGCAAGGUGUCUGUGGUUAGACUGCG [G2U C10G G19U A26G G30U C37U C46G], 0; to GUCAGAGCUGAACACAGCGUGGCAAAGUGGCUGCGGCUAGACUGCC [G2U C10G U34C], 0.
Under GUCAGAGCUCAAAACAGCGUGGCAGAGUGGAUGGGGCUAGACUGCA [G2U C13A A25G C31A U34G C46A] stands 0.01; under GUCAGAGCUAAACACAGCGGGGCAAAAUGGCUGUGGCUAGACUGCC [G2U C10A U20G G27A], 0.
In the case of GUCAGAGCUCAAUACAGCGUGGCAGACUGGCUGUGGCUAGACUGAC [G2U C13U A25G G27C C45A], the self-cleavage came to 0.
Under GUCAGAGCUAAACACAGCGUGGCAAAGUGGCUGUGGCUAGAUUGCC [G2U C10A C42U] stands 0.01; under GUCAGAGCUACACACAGCGUGGCAAAGUGGCUGGGGCUAGACUGCC [G2U C10A A11C U34G], 0.
Under GUCAGAGCUAAACACAGAGUGGGAAAGUAGCUCUGGCUAGACUGCC [G2U C10A C18A C23G G29A G33C] stands 0; under GUCAGAGCUGAACACAGCGUGGCAAAGUGGCUGUGGCGAGACUGCC [G2U C10G U38G], 0; under GUCAGAGCUGAACACAGCGAGGCAAAGUGGCUGUGGCUAGAUUGCA [G2U C10G U20A C42U C46A], 0.
To GUCAGAGCUAAUCACAGCGUGGCAAAGUGGCUGUGGCUAGACUGCC [G2U C10A A12U] belongs 0.
For the variant GUCAGAGCUAAACACAGCGUGGCAAAGUGUCUGUGGCUAGACUGCC [G2U C10A G30U], the self-cleavage amounted to 0.03.
In the case of GUCAGAGCUCAAGACAGCGUAGCAAAGUGGCAGCGGCUCGACUGCC [G2U C13G G21A U32A U34C A39C], the self-cleavage stood at 0.03.
Under GUCAGAGCUCAAUCCAGCGUGGCAAAGUGGCUGUUGCUAGACUGCC [G2U C13U A14C G35U] stands 0.02.
To GUCAGAGUUCAACACAGCGGGGCAAGGUGGCUGUGGCUAGACUGCC [G2U C8U U20G A26G] belongs 0.02.
